Measured values as given in publication PMC12136788.
Some of the results follow.

T1: UNK ZnF1-6 (called full-length) (human, UniProt Q9C0B0 30-357)
T1 sequence: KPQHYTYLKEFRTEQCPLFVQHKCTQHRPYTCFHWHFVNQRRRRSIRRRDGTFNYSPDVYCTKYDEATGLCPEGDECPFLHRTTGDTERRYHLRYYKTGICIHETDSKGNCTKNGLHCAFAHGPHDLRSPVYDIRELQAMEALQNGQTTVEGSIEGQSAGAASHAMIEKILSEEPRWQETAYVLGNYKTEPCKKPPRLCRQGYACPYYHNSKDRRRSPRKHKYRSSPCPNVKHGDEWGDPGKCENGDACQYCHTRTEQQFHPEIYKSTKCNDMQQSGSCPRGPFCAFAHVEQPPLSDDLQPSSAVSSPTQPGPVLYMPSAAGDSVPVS

B1: chr22:41117408:41117517:+|CDS|ENSG00000100393|unk|FALSE|unique (ssRNA)
RNA: GGGAGUUCUACAGUCCGACGAUCCCAGGUCAAGUCAUGGCCAGCCAGGCCCAACAGAGCAGUCCUGGAUUAGGUUUGAUAAAUAGCAUGGUCAAAAGCCCAAUGACACAGGCAGGCUUGACUUCUCCCAACAUGGGGAUGGGCCAACAGAGGAUUGAGCAUCA
B2: chr8:123014585:123014686:-|3pUTR|ENSG00000136986|msi1|FALSE|unique (ssRNA)
RNA: GGGAGUUCUACAGUCCGACGAUCGCAGCUAACAUGGGUUAGGUUUAAACCAUGGGGGAUGCAACCCCUUUGCGUUUCAUAUGUAGGCCUACUGGCUUUGUGUAGCUGGAGUAGUUGGGUUGCUUUGUGUUAGGAGGAUCCAGACAACAGAGGAUUGAGCAUCA
B3: ENSG00000070961:be:win_1151|CDS|ENSG00000070961|bound_else_gene|NA|bound_elsewhere_windowed (ssRNA)
RNA: GGGAGUUCUACAGUCCGACGAUCCAGUUAUCAUUCUAGUAUUAUAUUUUGUCAUUGACACCUUCUGGGUUCAGAAAAGACCAUGGCUUGCUGAGUGCACACCAAUUUAUAUACAAUACUUUGUGAAGUUCUUCAUUAUUGGAGCAACAGAGGAUUGAGCAUCA
B4: ENSG00000107863:be:win_5201|CDS|ENSG00000107863|bound_else_gene|NA|bound_elsewhere_windowed (ssRNA)
RNA: GGGAGUUCUACAGUCCGACGAUCUUGAUGUUAUGAAAAAAGGAAAGUCAACUGGGAGUUUACUGACACCCACCAGAGGCGAAUCCGAAAAACAGGAACCCACAUGGAAAACGAAAAUAGCAGAUCGGUUAAAACUGAGACCCACAACAGAGGAUUGAGCAUCA
B5: chr12:42456824:42456925:-|3pUTR|ENSG00000139174|unk|total|mutant (ssRNA)
RNA: GGGAGUUCUACAGUCCGACGAUCAUGAGCCACUGCGUCUGGCAAUAAUGUAACUUUGAAGCUUAAAAAUUAAUCCCAGUUUGCCGCAAUAACAGAAGACUAUCUACAACGGAAGAAAGAAGCAACUGCCUUACAGUUCUGUAACAACAGAGGAUUGAGCAUCA
B6: chr1:61455842:61455953:+|3pUTR|ENSG00000162599|unk|total|mutant (ssRNA)
RNA: GGGAGUUCUACAGUCCGACGAUCUUUUCUGUAACAUAUUGGAAAAAGAAAAUGCAGUUAUAUUCCUUUUUUAUUUGUUCCUUCCGUUUGUUUUGGUUCAGCAGUCAGCAGUUAAGUAUAUAACAUGGCCCGCAAGGACAAUGACAACAGAGGAUUGAGCAUCA
B7: chr8:22006364:22006465:+|3pUTR|ENSG00000130227|msi1|total|mutant (ssRNA)
RNA: GGGAGUUCUACAGUCCGACGAUCUGUUGCUGCCCGUUGUACACAUCUCCCGUUCAGCUCUUGCCCACGGGACACUCAUCAAUCCGGUUUUAUUUUUAUUUCUUUCCUCUACCCCCAGAAACAAGCCUGUUAAUUUUUUUUCCUCAACAGAGGAUUGAGCAUCA
B8: ENSG00000198589:be:win_8001|CDS|ENSG00000198589|bound_else_gene|NA|bound_elsewhere_windowed (ssRNA)
RNA: GGGAGUUCUACAGUCCGACGAUCUGGAGAUAACCCAGGCAGUGAGACUGCUGCUCCUCGGGCCAUUUUGACCGGCCAUGACUAUGAGGUCACAUGUGCUGCGGUGUGUGCGGAGCUAGGCCUGGUGUUGAGUGGUUCACAAGACAACAGAGGAUUGAGCAUCA
B9: chr16:67638976:67639077:+|3pUTR|ENSG00000102974|unk|FALSE|unique (ssRNA)
RNA: GGGAGUUCUACAGUCCGACGAUCAAACACUUUUUUCUUCUGUGUAUUGCUUUUAAGAGAGCCAUCAGUUAGCUAUCAGACUCUAGGUUGAUGCAUUUUGUACUUAGCUGUACUGUGUGAUAUUUUUCAUUAUUUUAGGACGCCCAACAGAGGAUUGAGCAUCA
B10: chrX:11121696:11121802:+|CDS|ENSG00000004961|unk|total|mutant (ssRNA)
RNA: GGGAGUUCUACAGUCCGACGAUCUGAUGGUGGUGAAGUCAACAAGGACUACCAGUUCACCAUCCUGGACGUCCGUCCUGCCUCCGAUUCACUUUCGGCAGUAUGGGACAGAAUGAAAGUCGCUUGGUGGCGUUGGACCUCGUACAACAGAGGAUUGAGCAUCA
B11: chr12:108645191:108645284:-|3pUTR|ENSG00000110880|msi1_unk|FALSE|overlapping (ssRNA)
RNA: GGGAGUUCUACAGUCCGACGAUCUCUUUUUUUUUUUUUUUUUUUAAGCCAUGACAUCCCAGAAGAGGACAGUGAAUUACUCCUAGGUCGGCUCUUAUAGAGUGGCCAUAGUGUUCUGUCAAAACACUUGCUUCCAUUUUCAGACAACAGAGGAUUGAGCAUCA
B12: chr8:38210141:38210254:+|CDS|ENSG00000156735|unk|total|mutant (ssRNA)
RNA: GGGAGUUCUACAGUCCGACGAUCGCUGAGCCUCAGCUGUAUGGUAAUGCCACCAGUGACCAUCCCAACAAUCAAGAUCAAAGCCGCAGUCUUCCUGAAGAAUGUGUACCUUCAGAUGAAAGUACUCCUCCGAGUAUUAAAAAACAACAGAGGAUUGAGCAUCA
B13: chr2:231108229:231108516:-|three_prime_utr|ENSG00000135914|control|control|control (ssRNA)
RNA: GGGAGUUCUACAGUCCGACGAUCAAGAAUAUCUAAUUUUCCUAAUUUGGACAAGAUUAUUCCAUGAGGAAAAUAAUUUUAUAUAGCUACAAAUGAAAACAAUCCAGCACUCUGGUUAAAUUUUAAGGUAUUCGAAUGAAAUAACAACAGAGGAUUGAGCAUCA
B14: chr11:6395124:6395533:-|three_prime_utr|ENSG00000166313|control|control|control (ssRNA)
RNA: GGGAGUUCUACAGUCCGACGAUCCCCUCCACCUGCUUGUGUUGGGCCCCAGGGAACUAAAGGGUGUGGGUCAGGGAGGGGUCUAGAGGCUAUUCCUAGGCCUCAGGCCUCCCAAAUAUGCCCCUCCCCAGUAGCUACGGUUCCCAACAGAGGAUUGAGCAUCA
B15: chr7:101137467:101137738:+|3pUTR|ENSG00000106366|msi1|FALSE|unique (ssRNA)
RNA: GGGAGUUCUACAGUCCGACGAUCGUUAAAAGAUGGUAAACCAGAUCUGUCUCCAAGACCUUGGCCUCUCCUUGGAGGACCUUUAGGUCAAACUCCCUAGUCUCCACCUGAGACCCUGGGAGAGAAGUUUGAAGCACAACUCCCCAACAGAGGAUUGAGCAUCA
B16: ENSG00000198589:be:win_7501|CDS|ENSG00000198589|bound_else_gene|NA|bound_elsewhere_windowed (ssRNA)
RNA: GGGAGUUCUACAGUCCGACGAUCCUCAAGUUUCCCUCCAACUCCCCUGUUACUCACGUGGCAGCCAACACCCAGCCUGGUUUGGCAACUCCCGCUGUGAUCACAGUCACUGCUAACAGGUUAUUUGCGGUGAACAAAUGGCACCAACAGAGGAUUGAGCAUCA
B17: chr16:1487315:1487970:-|CDS|ENSG00000251692|control|control|control (ssRNA)
RNA: GGGAGUUCUACAGUCCGACGAUCGGGGGAGCUGGCGCAGCUCAAGGCCUGGGUGAGGAAGCUGCAGCGCCGAGGCCGGAAAGUAGACACGCGGCUGCGGGCCUUGGACCUCACCCUGGGCGAGAGGAGCCAGCAGCGGGCCCGCAACAGAGGAUUGAGCAUCA
B18: chr20:13714314:13714426:-|3pUTR|ENSG00000089048|unk|FALSE|unique (ssRNA)
RNA: GGGAGUUCUACAGUCCGACGAUCUUUUUCUAGCCAUAAAGGAUGGAAGUCAAGAACUUUUUGUUGUUUAGUCAUGUUAAGUAUAGUUUAUGAAAUUAACUUGUAAAUAAAAGUGUAAAAUAUUUUCAUUAUUUUGUAUAGCACCAACAGAGGAUUGAGCAUCA
B19: chr10:62094764:62094865:+|3pUTR|ENSG00000150347|msi1|FALSE|unique (ssRNA)
RNA: GGGAGUUCUACAGUCCGACGAUCGAUGAACUCCCCAACCCACUGUGCCCCUCCCGCAACACUACCAGUAGACUUUAGAACCAUAGUUAACUAAGUCUUUUACCUCUGAGAUACUUAAUUCUGGGAAAAUUGGUGACAAUUUUCCAACAGAGGAUUGAGCAUCA
B20: chr16:58551611:58551719:-|CDS|ENSG00000125107|unk|total|mutant (ssRNA)
RNA: GGGAGUUCUACAGUCCGACGAUCCUGGCUCAGGCCCAGGCUCAGGCCCAGGUUCCAGCAAAAGCUCCUCUUGCUGGUCAAGUCCGCACUAUGGUAACCACCUCAACAACUACCACUGUUGCUAAAACGGUUACGGUCACCAGGCAACAGAGGAUUGAGCAUCA
B21: ENSG00000198589:be:win_7251|CDS|ENSG00000198589|bound_else_gene|NA|bound_elsewhere_windowed (ssRNA)
RNA: GGGAGUUCUACAGUCCGACGAUCUGGCUAUAAACAGCAAGGACCAGAAGCUGUCCGAGCCCUCAAUGUGUUCUAUUACUUGACCUAUGAAGGAGCUGUCAAUCUGAAUUCAAUAACUGAUCCUGUGUUGAGAGAGGCUGUUGACAACAGAGGAUUGAGCAUCA
B22: chr1:68475836:68475940:-|3pUTR|ENSG00000024526|unk|total|mutant (ssRNA)
RNA: GGGAGUUCUACAGUCCGACGAUCAUGCCCAGGGCCUAACUUACACUAAUUAAAUCUGAAUUUUGGGGAUGUUGUACCGGGAUCCGUAUUUUUUUUAAUCCCGGUGAUUCCAAUAUUCAGCCAACUGUGAGAAUCAAUGGCCUACAACAGAGGAUUGAGCAUCA

Target: T1, UNK ZnF1-6 (called full-length)
Assay: nsRBNS (natural sequence RNA bind-n-seq); RBNS binding buffer (assumed for nsRBNS): 25 mM Tris pH 7.5, 150 mM KCl, 3 mM MgCl2, 0.01% Triton X-100, 500 ug/ml BSA, 20 U/ml SUPERase-In, 4 C; UNK is unkempt and MSI1 is Musashi-1; names of the RNAs are library labels; protein concentration not given here; high values mean tight binding

Binder | binding signal [enrichment R]
B1 | 1.14
B2 | 0.611
B3 | 6.68
B4 | 0.518
B5 | 0.293
B6 | 0.421
B7 | 2.95
B8 | 0.695
B9 | 2.13
B10 | 0.608
B11 | 4.79
B12 | 0.499
B13 | 1.88
B14 | 0.496
B15 | 0.446
B16 | 0.528
B17 | 0.727
B18 | 62.3
B19 | 3.7
B20 | 0.536
B21 | 0.511
B22 | 0.698
